Measurements: patent US20240374736A1, “INHALED LIQUID FOR THE TREATMENT OF RESPIRATORY INFECTIONS IN HUMANS CAUSED BY PATHOGENS RESISTANT TO ANTIBIOTICS” (priority 2023, published 2024)

How the values were obtained:
[1] = test system: Candida; experiment: In vitro test, zone diameter on Müler-Hinton-Agar; type: cell-based; conditions: amount used: novel compound 0.05 mL, Cephalosporin 0.1 mL, Ampicillin 0.2 mL
[2] = test system: Campylobacter; experiment: In vitro test, zone diameter on Müler-Hinton-Agar; type: cell-based; conditions: amount used: novel compound 0.05 mL, Cephalosporin 0.1 mL, Ampicillin 0.2 mL
[3] = test system: Micrococcus; experiment: In vitro test, zone diameter on Müler-Hinton-Agar; type: cell-based; conditions: amount used: novel compound 0.05 mL, Cephalosporin 0.1 mL, Ampicillin 0.2 mL
[4] = test system: Pasteurella; experiment: In vitro test, zone diameter on Müler-Hinton-Agar; type: cell-based; conditions: amount used: novel compound 0.05 mL, Cephalosporin 0.1 mL, Ampicillin 0.2 mL
[5] = test system: Cryptococcus; experiment: In vitro test, zone diameter on Müler-Hinton-Agar; type: cell-based; conditions: amount used: novel compound 0.05 mL, Cephalosporin 0.1 mL, Ampicillin 0.2 mL
[6] = test system: humans; experiment: Clinical pilot study of side effects on 80 humans (inhalation)
[7] = test system: rats; conditions: p.o., 2,250 μL/kg
[8] = inhaled 10 mL of 2%/30 kg body weight every 8 h for 7 days

## CC1(C)S[C@@H]2[C@H](NC(=O)[C@H](N)c3ccccc3)C(=O)N2[C@H]1C(=O)O [Ampicilin, Ampicillin]
[1]
  R (evaluation of the results by zone diameter): R (0 mm-4 mm: resistant: R)
  zone diameter: 4 mm
[2]
  R (evaluation of the results by zone diameter): MS (5 mm-9 mm: moderately sensitive: MS)
  zone diameter: 7 mm
[3]
  R (evaluation of the results by zone diameter): R (0 mm-4 mm: resistant: R)
  zone diameter: 0 mm
[4]
  R (evaluation of the results by zone diameter): MS (5 mm-9 mm: moderately sensitive: MS)
  zone diameter: 5 mm
[5]
  R (evaluation of the results by zone diameter): R (0 mm-4 mm: resistant: R)
  zone diameter: 0 mm

## C=CCc1ccc(O)c(OC)c1.CCN(CC)CC(=O)Nc1c(C)cccc1C [novel compound, N-[N′-(carboxymethylenyl-2,6-dimethyl-aniline)-N,N-diethylammonium]-[2′-methoxy-4′-(2′-propenyl)]-phenolate]
[1]
  R (evaluation of the results by zone diameter): ES (21 mm and more: extremely sensitive: ES)
[6]; at the beginning of the test
  coughing: Sporadic coughing was recorded in some participants
[6]; during the clinical study
  respiratory function: not disturbed
[6]; during the inhalation
  pulse frequency and blood pressure: not significantly altered
[6]; during the intake
  electrocardiography measurements: regular without any pathological and irregular oscillations
[6]; during the study
  C Reactive Protein (CRP) measurements: no inflammation was developed
[6]; during the test
  bronchospasms: No bronchospasms were recorded
  dyspnea: No dyspnea was recorded
[6]; for the period of testing
  kidney functions (urine and blood parameters): did not have any negative effects on the kidneys
[6]; [8]
  allergy symptoms: no allergy symptoms
  tolerance: showed tolerance
[2]
  R (evaluation of the results by zone diameter): ES (21 mm and more: extremely sensitive: ES)
[3]
  R (evaluation of the results by zone diameter): ES (21 mm and more: extremely sensitive: ES)
[4]
  R (evaluation of the results by zone diameter): ES (21 mm and more: extremely sensitive: ES)
[7]
  breathing and cardiac functions: regular
  time after which discomfort symptoms disappeared: 1 to 3 min
[5]
  R (evaluation of the results by zone diameter): ES (21 mm and more: extremely sensitive: ES)
